Test system: type III secretion system
Settings: sheep red blood cells, EPEC cesT defective strain, 37° C., 90-150 minutes, hemoglobin at 550 nm
Method: Test was performed according to method for detecting substances inhibiting the bacterial type III secretion system and function of secretory proteins thereof which was established by Omura et al. (WO 02/057760A1 and corresponding U.S. Pat. No. 6,586,200). One loopful enteropathogenic E. coli cesT defective strain (WO 02/057760A1) was inoculated in LB liquid medium (EB media 2.5%, Funakoshi Co. Ltd., Japan) (5 ml) and cultured at 37° C. for 12 hours without shaking. […]
Erythrocytes was washed three times by centrifugation of the erythrocytes suspension, which was prepared by adding physiological saline (40 ml) to the sheep red blood cells (8 ml) (obtainable from Nippon Biological Materials Center, Japan), at 4° C. at 2500 rpm for 5 minutes. Weight of the erythrocyte pellets was measured. […] The thus prepared E. coli suspension and erythrocyte suspension were mixed in equal quantities. […] Eluted hemoglobin was measured at 550 nm by using automatic microplate reader (Bio-Instruments Inc., U.S.A.). The hemolytic inhibitory activity is calculated by the following equation. […]

Structure (SMILES) | drug concentration causing 50 % hemolytic inhibitory activity (IC50) [µg/mL]
CC(NC(=O)C1NC(C)C(=O)NC1CCC(O)C(O)CC1CNC(=N)N1C(N)=O)C(=O)NC(C(=O)O)C(C)C (centres unmarked) [K01-0509-A2 substance] | 3.2
CC(NC(=O)C1NC(C)C(=O)NC1CCC(O)C(O)CC1CNC(=N)N1C(N)=O)C(=O)NC(C(=O)O)C(C)C (centres unmarked) [K01-0509-A1 substance] | 4.2
